# Laboratory results reported in article PMC6919601, “Identification of Plasmodium dipeptidyl aminopeptidase allosteric inhibitors by high throughput screening” (PLoS ONE, 2019).
# About 230 (0.21%) of roughly 110,000 compounds showed an effect of 50% or more. The list shows a part of the results.
# Molecular target: DPAP1 (Plasmodium falciparum, UniProt Q8IIJ9)
# Assay: primary screen, percent inhibition; read by cleavage of a fluorogenic dipeptide substrate; higher = more effect of the substance
# Design: species or system P. falciparum D10 trophozoite lysates; single well
# 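Further: 30 min substrate incubation versus DMSO and 10 µM JCP410 controls.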
# DPAP1, sequence (Q8IIJ9 whole entry, looked up): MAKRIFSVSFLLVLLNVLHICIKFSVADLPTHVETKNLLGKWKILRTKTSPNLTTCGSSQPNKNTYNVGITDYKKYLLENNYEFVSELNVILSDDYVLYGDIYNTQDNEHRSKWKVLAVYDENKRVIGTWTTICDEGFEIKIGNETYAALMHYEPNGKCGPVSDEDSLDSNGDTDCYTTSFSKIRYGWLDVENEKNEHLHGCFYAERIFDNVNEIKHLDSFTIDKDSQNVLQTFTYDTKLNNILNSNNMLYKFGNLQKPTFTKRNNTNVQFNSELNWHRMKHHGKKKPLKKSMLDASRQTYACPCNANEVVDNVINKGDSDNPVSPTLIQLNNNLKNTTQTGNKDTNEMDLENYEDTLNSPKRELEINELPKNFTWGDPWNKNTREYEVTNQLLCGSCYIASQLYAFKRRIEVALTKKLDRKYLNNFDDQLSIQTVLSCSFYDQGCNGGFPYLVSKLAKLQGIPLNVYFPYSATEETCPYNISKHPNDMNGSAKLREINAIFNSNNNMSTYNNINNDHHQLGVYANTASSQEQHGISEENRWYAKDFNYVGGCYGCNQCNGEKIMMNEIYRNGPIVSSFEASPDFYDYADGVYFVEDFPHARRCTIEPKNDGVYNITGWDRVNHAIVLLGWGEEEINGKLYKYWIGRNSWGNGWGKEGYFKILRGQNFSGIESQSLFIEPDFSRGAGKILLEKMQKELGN
row,Compound,% Inhibition @ 10 uM [%]
1,Cc1c(C(=O)N2CCOCC2)sc(NC(=O)C(C)C)c1C#N,2.38
2,COc1ccc(-c2csc(N3N=C(c4ccccc4)CC3c3ccccc3)n2)cc1F (centres unmarked),-2.5
3,O=C1N=C(Nc2cccc3ccccc23)S/C1=C1\C(=O)Nc2ccc(Br)cc21,0.145
4,Cc1cccc(CCNC(=O)c2cn(C)c(=O)c3c2c2ccccc2n3C)c1,-7.77
5,CCCNC(=O)NS(=O)(=O)c1cnccc1Sc1ccc(Cl)c(Cl)c1,-2.74
6,CC(NC(=O)c1sc2nc(-c3cccs3)ccc2c1N)c1ccccc1 (centres unmarked),1.28
7,O=C(Nc1sc2c(c1C(=O)O)CCCC2)c1ccc(F)cc1,-3.27
8,COC(=O)c1cc(OC)c(OC)cc1NC(=O)c1ccc(OC)cc1,3.34
9,O=C(O)C1CC=CCC1C(=O)c1c[nH]c2ccccc12 (centres unmarked),2.62
10,COc1ccc2nc(NC(=O)CNC(=O)Cn3ccc4ccccc4c3=O)sc2c1,6.58
11,CCN(CC)CCN(C)Cc1ccc(Cl)c(Cl)c1,-5.9
12,COc1ccc2[nH]c3c(c2c1)CCNC3=O,-1.86
13,CC(C)C[C@H](NC(=O)[C@H](CC(C)C)NC(=O)OCc1ccccc1)C(=O)C[N+](=O)[O-],-2.35
14,Cc1cc(NC(=O)c2sc3nc4c(c(-c5ccc(Cl)cc5)c3c2N)CCCC4)no1,-2.14
15,O=C(Cc1ccc(Cl)cc1Cl)Nc1ccc(Cl)cn1,3.04
16,Cc1ccc(Oc2nc3ccccn3c(=O)c2/C=C(\C#N)C(=O)NC2CCS(=O)(=O)C2)cc1 (centres unmarked),-6.23
17,CCn1c2ccccc2n2nc(C)c(C(C)=O)c12,-3.14
18,CCC(CC)NC1CCCCC1OC (centres unmarked),-3.74
19,CC(=O)NC1=NC(=O)/C(=C\c2cccc3ccccc23)S1,-10.2
20,O=C(NCCCO)c1ccc(Cl)cc1,-0.0369
21,COc1ccc2c(CNC3CCCC(C)C3C)c(C(=O)O)n(Cc3ccccc3C)c2c1 (centres unmarked),4.14
22,COc1ccc(C2C(C#N)=C(N)Oc3[nH]nc(-c4ccc(C)cc4)c32)cc1 (centres unmarked),10.6
23,c1ccc(COc2cc3ccoc3cc2OCc2ccccc2)cc1,-6.99
24,CCS(=O)(=O)N1CCC(C(=O)NCCN(C)C)CC1,-1.21
25,CCN(CC)S(=O)(=O)c1ccc2[nH]cc(C(=O)O)c2c1,-2.55
26,COC(=O)c1ccc(-c2nc(O)c3c(n2)Oc2ccc(F)cc2C3)cc1,5.48

row,Compound,% Inhibition @ 10 uM [%]
1,C1CCCN(c2nc3nonc3nc2N2CCCCCC2)CC1,-2.6
2,Cc1cccc(NC(=O)NC(N)=O)c1,-3.93
3,Cc1cc(/C=C2\SC(Nc3ccccc3)=NC2=O)c(C)n1-c1ccc(S(N)(=O)=O)cc1,-0.992
4,CN(C)CCN(C)Cc1ccc(F)cc1F,0.135
5,CC(Cc1ccccc1)NC(=O)/C=C/c1ccco1 (centres unmarked),2.99
6,Cc1ccc2onc(CC(=O)NCCC3=CCCCC3)c2c1,-1.38
7,Cc1ccc2oc(=O)c3cc(C(=O)N4CCN(Cc5ccccc5)CC4)sc3c2c1,1.38
8,CC(C)(C)c1ccc(C(=O)Nc2nc3ccccc3s2)cc1,1.25
9,Cc1ccc(NCc2ccc(OCC(=O)NC(C)(C)C)cc2)cc1C,-5.56
10,Clc1cccc(C2OCC3(CO2)COC(c2cccc(Cl)c2)OC3)c1 (centres unmarked),-0.48
11,CCOc1ccccc1NC(=O)c1cccc(C(=O)Nc2ccccc2OCC)n1,4.1
12,CCOc1ccc(-c2nc(O)c3c(n2)Oc2ccc(F)cc2C3)cc1,6.98
13,CSc1ccc(CCNC(=O)CSCc2cc(C(=O)C(F)(F)F)n(C)c2)cc1,-0.0309
14,COc1ccc(Br)cc1CN1CCc2c([nH]c3ccccc23)C1,-0.828
15,c1ccc(-c2ccc(CN3CCN(c4ccccc4)CC3)cc2)cc1,-3.82
16,CCCc1[nH]nc2c1C(=O)C(C(=O)OC)C(C)(C)C2 (centres unmarked),-0.807
17,CC(C(=O)N1CCN(c2ccccn2)CC1)n1ncn2cccc2c1=O (centres unmarked),-4.59
18,CC(C)(C)NC(=O)c1ccc2c(c1)C(=O)N(Cc1ccco1)C2=O,2.03
19,CC(=O)c1ccc(S(=O)(=O)NCc2cn3c(C)csc3n2)cc1,5.47
20,CCc1nnc2sc(NC(=O)C3CCCCC3)nn12,-0.659
21,O=C(CCc1nc(CN2CCN(S(=O)(=O)c3ccc(Cl)s3)CC2)no1)N1CCCC1,-3.14
22,CC1=C(C(=O)OCC(Cl)(Cl)Cl)C(c2cccc(Br)c2)NC(=O)N1 (centres unmarked),2.7
23,Cc1cc(Cl)ccc1OCC(=O)Nc1ccc(S(N)(=O)=O)cc1,0.0504
24,COc1ccc(-c2c(C)nn3c(O)cc(Cc4ccccc4)nc23)cc1OC,-4.78
25,OC1O[C@@H](COCc2ccccc2)[C@H](OCc2ccccc2)[C@@H](OCc2ccccc2)[C@H]1O (some centres unmarked),2.17
26,c1csc(CN2CCN(Cc3ccc4c(c3)OCO4)CC2)c1,-1.07

row,Compound,% Inhibition @ 10 uM [%]
1,Brc1cccc(CNCc2ccc3c(c2)OCO3)c1,0.214
2,Cc1nc2cccc(C(=O)NCc3ccccc3)c2o1,1.03
3,COCCNC(=O)CN1C(=O)CSc2c1c(C)nn2-c1ccccc1,-1.93
4,O=C(Nc1ncc(-c2ccccc2)s1)c1ccncc1,-5.28
5,COc1ccc(CCn2c(=O)c3cccnc3n(CC(N)=O)c2=O)cc1OC,-5.27
6,Fc1ccccc1OCCN1CCOCC1,3.82
7,COc1ccc(C(=O)C2CC=CCN2Cc2ccccc2)cc1OC (centres unmarked),2.48
8,CC(=O)Nc1ccc(S(=O)(=O)Nc2ccc(C(C)=O)cc2)cc1,-5.1
9,COc1ccc(CNC(=O)c2ccc(C)o2)cc1,-1.63
10,COc1ccc(C(=O)Nc2nnc(C(C)(C)C)s2)cc1,-4.87
11,O=C(Cc1ccc2c(c1)OCO2)c1cc2c(cc1Br)OCO2,-3.25
12,Cc1ccc2c(c1)-c1onc(C(=O)NCCC(C)C)c1CO2,1.14
13,O=C(NC1CCCCCC1)c1ccc(CS(=O)(=O)c2cccc(C(F)(F)F)c2)o1,-3.09
14,CC(C)CC1=NN2C(=N)/C(=C/c3ccc(C(C)C)cc3)C(=O)N=C2S1,0.484
15,O=C1NC(=O)N(c2ccccc2)C(=O)/C1=C\Nc1ccccc1O,-0.996
16,Fc1ccc(-c2cc(-c3ccccc3)nc(N3N=C(c4ccccc4)CC3c3ccccc3)n2)cc1 (centres unmarked),5.03
17,CC(C)OCCCNC(=O)c1cc2c(s1)-c1ccccc1S(=O)(=O)C2,1.22
18,CCCCOc1ccc(C2SCC(=O)Nc3c2c(O)nn3C(C)CCC)cc1 (centres unmarked),-2.21
19,COc1cccc(OC)c1C(=O)N1CCN(C(=O)c2cccnc2)CC1,6.12
20,COCCNC(=O)COc1ccc(C(C)(C)C)cc1Br,-2.76
21,C#CCN1C(=O)S/C(=C\C=C\c2ccc(N(C)C)cc2)C1=O,-3.33
22,O=C(Cc1noc2ccccc12)NCCN1CCN(Cc2ccccc2)CC1,3.71
23,C=CCNC(=O)CN(Cc1ccc(C)cc1)S(=O)(=O)c1ccc(C)cc1,3.79
24,CCOC(=O)c1c(C)nc2cc(C)ccn12,-3.35
25,COc1ccc(CCC(C)NCCCN2CCOCC2)cc1 (centres unmarked),-2.03
26,CN(CC(=O)N1CCN(c2ccccn2)CC1)S(=O)(=O)c1cccc2nsnc12,-1.43

row,Compound,% Inhibition @ 10 uM [%]
1,Clc1ccc(CCNCc2ccccn2)c(Cl)c1,0.177
2,O=C(Nc1ccc(F)cc1)c1ccc(Cl)c([N+](=O)[O-])c1,1.96
3,CCOC(=O)N1CCN(C(=O)Cc2c(C(=O)O)[nH]c3ccccc23)CC1,4.14
4,Cc1ccc(/N=C2\S/C(=C\c3cn(CC(=O)O)c4ccccc34)C(=O)N2C)cc1,21
5,CCOc1ccc(CCNC(=O)CCn2c(=O)c3cccn3c3cccnc32)cc1OCC,-3.91
6,Cc1c(Cl)cccc1N(CC(=O)Nc1ccc(Cl)cc1)S(C)(=O)=O,-5.15
7,CNC(=O)CC(NS(=O)(=O)c1ccc(Br)cc1)c1ccc(OC)cc1 (centres unmarked),1.62
8,Cc1nc2cc(-c3ccccc3)nn2c(C)c1CCC(=O)NCCC(C)C,2.93
9,Cc1cc(O)n2nc(N3C(=O)c4ccc(C(=O)O)cc4C3=O)nc2n1,-3.08
10,O=S(=O)(c1ccccc1)c1nnn2c1nc(NCc1ccc3c(c1)OCO3)c1sccc12,-2.85
11,COc1ccc(C(CC(=O)O)NC(=O)OC(C)(C)C)cc1 (centres unmarked),-5.14
12,CCOC(=O)N1CC(C)N(C(=O)OCC)CC1C (centres unmarked),-5
13,O=S(=O)(c1ccc(Oc2ccc(S(=O)(=O)N3CCCC3)cc2)cc1)N1CCCC1,-2.17
14,CC(C)(C)C(=O)NCCN1CCN(C(=O)C(C)(C)C)CC1,1.65
15,Brc1ccc(-c2noc(C3CCCCC3)n2)cc1,3.9
16,Cc1sc(NC(=O)c2csc3ccccc23)c(C(N)=O)c1-c1ccccc1,3.86
17,O=c1sc2cc(Br)ccc2n1Cc1ccccc1,-4.15
18,CCCNC(=O)CN(Cc1c(Cl)cccc1Cl)S(=O)(=O)c1ccc(Cl)cc1,-2.85
19,CCn1c2ccccc2c2nnc(N3CCC(C)CC3)nc21,-3.1
20,COc1ccc(-c2cc(C(F)(F)F)n3nc(C(=O)N4CCc5ccccc5C4)cc3n2)cc1,-4.84
21,Cc1ccc(-c2nc(C(=O)N3CCCCC3c3cccnc3)c3n2CCCCC3)cc1 (centres unmarked),5.13
22,O=C(NC1CCN(Cc2ccccc2)CC1)c1cc(-c2ccc(Cl)cc2)n[nH]1,-3.12
23,O=C(c1ccccc1S(=O)(=O)NCc1ccccc1)N1CCOCC1,-1.47
